For at least one compound, name, drawing or mass did not settle the structure.
Target: T1, human KISS-receptor (Homo sapiens, UniProt Q969F8)
T1 construct: expressed in transfected cells; host or cells: CHO-k1 cells that also express mitochondrially targeted aequorin, Gα16 and an NFAT-luciferase reporter
Assay: NFAT-regulated luciferase reporter gene assay in CHO-k1 cells, agonist activity
Type: cell-based
Conditions: for pEC50: absence of human serum; for pEC50 serum: presence of 20% human serum

T1 sequence (Q969F8 whole entry): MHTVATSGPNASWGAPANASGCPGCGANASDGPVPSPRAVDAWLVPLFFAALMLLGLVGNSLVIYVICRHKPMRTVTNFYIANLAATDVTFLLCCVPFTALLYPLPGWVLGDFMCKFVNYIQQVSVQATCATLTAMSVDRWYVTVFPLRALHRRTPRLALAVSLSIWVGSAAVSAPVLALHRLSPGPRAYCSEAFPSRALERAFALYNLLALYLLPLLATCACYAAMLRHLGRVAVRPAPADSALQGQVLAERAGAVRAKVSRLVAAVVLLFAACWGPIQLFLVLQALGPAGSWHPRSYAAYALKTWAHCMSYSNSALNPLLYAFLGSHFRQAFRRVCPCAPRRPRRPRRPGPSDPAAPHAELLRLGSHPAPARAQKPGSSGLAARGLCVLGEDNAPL

CO[C@H]1O[C@H](COS(=O)(=O)O)[C@@H](O[C@@H]2O[C@@H](C(=O)O)[C@@H](O[C@H]3O[C@H](COS(=O)(=O)O)[C@@H](O[C@@H]4O[C@H](C(=O)O)[C@@H](O[C@H]5O[C@H](COS(=O)(=O)O)[C@@H](OCCOCCOCCOCCNC(=O)CCc6cn(CCCCC(=O)N[C@H](Cc7ccc(O)cc7)C(=O)N[C@@H](CC(N)=O)C(=O)N[C@@H](Cc7c[nH]c8ccccc78)C(=O)N[C@@H](CC(N)=O)C(=O)N[C@H](C(=O)N[C@@H](Cc7ccccc7)C(=O)NCC(=O)N[C@@H](CC(C)C)C(=O)N[C@@H](CCCNC(=N)N)C(=O)N[C@@H](Cc7c[nH]c8ccccc78)C(N)=O)[C@@H](C)O)nn6)[C@H](OC)[C@H]5OC)[C@H](OC)[C@H]4OC)[C@H](OS(=O)(=O)O)[C@H]3OS(=O)(=O)O)[C@H](OC)[C@H]2OC)[C@H](OS(=O)(=O)O)[C@H]1OS(=O)(=O)O [Conjugate C17]
pEC50: 9.11 | pEC50 serum: 8.07

CNC(=N)NCCC[C@H](NC(=O)[C@H](CC(C)C)n1cc(CNC(=O)[C@H](Cc2ccccc2)NC(=O)[C@@H](NC(=O)[C@H](CC(N)=O)NC(=O)[C@H](Cc2c[nH]c3ccccc23)NC(=O)[C@H](CC(N)=O)NC(=O)[C@@H](Cc2ccc(O)cc2)NC(=O)CCCCn2cc(CCC(=O)NCCOCCOCCOCCO[C@H]3[C@H](OC)[C@@H](OC)[C@@H](O[C@H]4[C@H](OC)[C@@H](OC)[C@H](O[C@H]5[C@H](OS(=O)(=O)O)[C@@H](OS(=O)(=O)O)[C@@H](O[C@H]6[C@H](OC)[C@@H](OC)[C@H](O[C@H]7[C@H](OC)[C@@H](OS(=O)(=O)O)[C@@H](OC)O[C@@H]7COS(=O)(=O)O)O[C@H]6C(=O)O)O[C@@H]5COS(=O)(=O)O)O[C@@H]4C(=O)O)O[C@@H]3COS(=O)(=O)O)nn2)[C@@H](C)O)nn1)C(=O)N[C@@H](Cc1ccccc1)C(N)=O [Conjugate C18]
pEC50: 9.47 | pEC50 serum: 8.60

CNC(=N)NCCC[C@H](NC(=O)[C@H](CC(C)C)n1cc(CNC(=O)[C@H](Cc2ccccc2)NC(=O)[C@@H](NC(=O)[C@H](CC(N)=O)NC(=O)[C@H](Cc2c[nH]c3ccccc23)NC(=O)[C@H](CC(N)=O)NC(=O)[C@@H](Cc2ccc(O)cc2)NC(=O)CCOCCOCCOCCOCCn2cc(CCC(=O)NCCOCCOCCOCCO[C@H]3[C@H](OC)[C@@H](OC)[C@@H](O[C@H]4[C@H](OC)[C@@H](OC)[C@H](O[C@H]5[C@H](OS(=O)(=O)O)[C@@H](OS(=O)(=O)O)[C@@H](O[C@H]6[C@H](OC)[C@@H](OC)[C@H](O[C@H]7[C@H](OC)[C@@H](OS(=O)(=O)O)[C@@H](OC)O[C@@H]7COS(=O)(=O)O)O[C@H]6C(=O)O)O[C@@H]5COS(=O)(=O)O)O[C@@H]4C(=O)O)O[C@@H]3COS(=O)(=O)O)nn2)[C@@H](C)O)nn1)C(=O)N[C@@H](Cc1ccccc1)C(N)=O [Conjugate C19]
pEC50: 9.48 | pEC50 serum: 9.13

CNC(=N)NCCC[C@H](NC(=O)[C@H](CC(C)C)n1cc(CNC(=O)[C@H](Cc2ccccc2)NC(=O)[C@@H](NC(=O)[C@H](CC(N)=O)NC(=O)[C@H](Cc2c[nH]c3ccccc23)NC(=O)[C@H](CC(N)=O)NC(=O)[C@@H](Cc2ccc(O)cc2)NC(=O)CCOCCOCCOCCOCCn2cc(CCC(=O)NCCOCCOCCOCCO[C@H]3[C@H](OC)[C@@H](OC)[C@@H](O[C@H]4[C@H](OC)[C@@H](OC)[C@H](O[C@H]5[C@H](OS(=O)(=O)O)[C@@H](OS(=O)(=O)O)[C@@H](O[C@H]6[C@H](OC)[C@@H](OC)[C@H](O[C@H]7[C@H](OS(=O)(=O)O)[C@@H](OS(=O)(=O)O)[C@@H](OC)O[C@@H]7COS(=O)(=O)O)O[C@H]6C(=O)O)O[C@@H]5COS(=O)(=O)O)O[C@@H]4C(=O)O)O[C@@H]3COS(=O)(=O)O)nn2)[C@@H](C)O)nn1)C(=O)N[C@@H](Cc1ccccc1)C(N)=O [Conjugate C20]
pEC50: 9.30

CNC(=N)NCCC[C@H](NC(=O)[C@H](CC(C)C)NC(=O)NNC(=O)[C@H](Cc1ccccc1)NC(=O)[C@@H](NC(=O)[C@H](CC(N)=O)NC(=O)[C@H](Cc1c[nH]c2ccccc12)NC(=O)[C@H](CC(N)=O)NC(=O)[C@@H](Cc1ccc(O)cc1)NC(=O)CCCCn1cc(CCC(=O)NCCOCCOCCOCCO[C@H]2[C@H](OC)[C@@H](OC)[C@@H](O[C@H]3[C@H](OC)[C@@H](OC)[C@H](O[C@H]4[C@H](OS(=O)(=O)O)[C@@H](OS(=O)(=O)O)[C@@H](O[C@H]5[C@H](OC)[C@@H](OC)[C@H](O[C@H]6[C@H](OS(=O)(=O)O)[C@@H](OS(=O)(=O)O)[C@@H](OC)O[C@@H]6COS(=O)(=O)O)O[C@H]5C(=O)O)O[C@@H]4COS(=O)(=O)O)O[C@@H]3C(=O)O)O[C@@H]2COS(=O)(=O)O)nn1)[C@@H](C)O)C(=O)N[C@@H](Cc1c[nH]c2ccccc12)C(N)=O [Conjugate C21]
pEC50: 9.83 | pEC50 serum: 8.07

CNC(=N)NCCC[C@H](NC(=O)[C@H](CC(C)C)NC(=O)NNC(=O)[C@H](Cc1ccccc1)NC(=O)[C@@H](NC(=O)[C@H](CC(N)=O)NC(=O)[C@H](Cc1c[nH]c2ccccc12)NC(=O)[C@H](CC(N)=O)NC(=O)[C@H](Cc1ccc(O)cc1)NC(=O)CCCCn1cc(CCC(=O)NCCOCCOCCOCCO[C@H]2[C@H](OC)[C@@H](OC)[C@@H](O[C@H]3[C@H](OC)[C@@H](OC)[C@H](O[C@H]4[C@H](OS(=O)(=O)O)[C@@H](OS(=O)(=O)O)[C@@H](O[C@H]5[C@H](OC)[C@@H](OC)[C@H](O[C@H]6[C@H](OS(=O)(=O)O)[C@@H](OS(=O)(=O)O)[C@@H](OC)O[C@@H]6COS(=O)(=O)O)O[C@H]5C(=O)O)O[C@@H]4COS(=O)(=O)O)O[C@@H]3C(=O)O)O[C@@H]2COS(=O)(=O)O)nn1)[C@@H](C)O)C(=O)N[C@@H](Cc1ccccc1)C(N)=O [Conjugate C22]
pEC50 serum: 8.41

CNC(=N)NCCC[C@H](NC(=O)[C@H](CC(C)C)n1cc(CNC(=O)[C@H](Cc2ccccc2)NC(=O)C(C)(C)NC(=O)[C@H](CC(N)=O)NC(=O)[C@H](Cc2c[nH]c3ccccc23)NC(=O)[C@H](CC(N)=O)NC(=O)[C@H](Cc2ccc(O)cc2)NC(=O)CCCCn2cc(CCC(=O)NCCOCCOCCOCCO[C@H]3[C@H](OC)[C@@H](OC)[C@@H](O[C@H]4[C@H](OC)[C@@H](OC)[C@H](O[C@H]5[C@H](OS(=O)(=O)O)[C@@H](OS(=O)(=O)O)[C@@H](O[C@H]6[C@H](OC)[C@@H](OC)[C@H](O[C@H]7[C@H](OS(=O)(=O)O)[C@@H](OS(=O)(=O)O)[C@@H](OC)O[C@@H]7COS(=O)(=O)O)O[C@H]6C(=O)O)O[C@@H]5COS(=O)(=O)O)O[C@@H]4C(=O)O)O[C@@H]3COS(=O)(=O)O)nn2)nn1)C(=O)N[C@@H](Cc1c[nH]c2ccccc12)C(N)=O [Conjugate C24]
pEC50: 10.17 | pEC50 serum: 8.21

CNC(=N)NCCC[C@H](NC(=O)[C@H](CC(C)C)NC(=O)CNC(=O)[C@H](Cc1ccccc1)NC(=O)[C@@H](NC(=O)[C@H](CC(N)=O)NC(=O)[C@@H]1C[C@@H](O)CN1C(=O)[C@H](CC(N)=O)NC(=O)[C@H](Cc1ccc(O)cc1)NC(=O)CCOCCOCCOCCOCCn1cc(CCC(=O)NCCOCCOCCOCCO[C@H]2[C@H](OC)[C@@H](OC)[C@@H](O[C@H]3[C@H](OC)[C@@H](OC)[C@H](O[C@H]4[C@H](OS(=O)(=O)O)[C@@H](OS(=O)(=O)O)[C@@H](O[C@H]5[C@H](OC)[C@@H](OC)[C@H](O[C@H]6[C@H](OS(=O)(=O)O)[C@@H](OS(=O)(=O)O)[C@@H](OC)O[C@@H]6COS(=O)(=O)O)O[C@H]5C(=O)O)O[C@@H]4COS(=O)(=O)O)O[C@@H]3C(=O)O)O[C@@H]2COS(=O)(=O)O)nn1)[C@@H](C)O)C(=O)N[C@@H](Cc1ccccc1)C(N)=O [Conjugate C26]
pEC50: 9.53 | pEC50 serum: 8.01

Reference: patent US9127038B2, “Kisspeptide-pentasaccharide conjugates” (Merck Sharp & Dohme Corp., priority 2011, dated 2015)
